Values marked as one replicate rest on one cluster of the flow cell; about a third of the high ones do not repeat.
Tested on: ATP
Experiment: switch fluorescence ratio, 500 uM ATP over buffer (Cy3 cluster intensity, sum of 5 cycles each) (fold (ratio)); higher = stronger signal-on switching upon ATP binding; sequences stand for … in TCGTCGGCAGCGTCAGATGTGTATAAGAGACAGTTTTTTTTTTTTTTTTTTTTTTTTT…TC
Conditions: aptamer strand: ATP DNA aptamer (quencher-CACCTGGGGGAGTATTGCGGAGGAAGG + anchor), 100 nM annealed; ATP concentration: 500 uM; one replicate
Outline: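 Switching-strand clusters labelled with Cy3 on a modified Illumina MiSeq flow-cell were annealed to 100 nM quencher-labelled ATP aptamer, imaged in selection buffer, and re-imaged after 15 min with 500 uM ATP at 22 °C. This was done over five cycles with NaOH stripping and re-annealing in between. The fluorescence ratio is summed target-cycle over summed buffer-cycle Cy3 intensity per cluster, averaged per switch-domain sequence, excluding clusters outside 100-1000 RFU.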
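Further: ATP exposure 15 min at 22 °C before imaging.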

| Sequence | switch fluorescence ratio |
| --- | --- |
| CATCGGAAAG | 1.01 |
| ACGCGGGGTT | 1.01 |
| TAATATCCTT | 1.05 |
| ATTATATTAG | 1.05 |
| ATAGGCTGGG | 1.03 |
| GTTAATAGTA | 1 |
| CGCAATTGAT | 3.25 |
| TATTTAGCAG | 1.07 |
| GAGTGAGAC | 1.06 |
| AGGTAACGAG | 1 |
| CGCACTCCTG | 1.51 |
| ATGATAACAT | 0.98 |
| TACTTTGGAA | 1.02 |
| TCAGGTCGCC | 0.969 |
| TCTTGCCCGC | 1.78 |
| AACATCACCG | 1.21 |
| TATTCTAGGC | 1.04 |
| TTGCGGGATT | 1.06 |
| GTACGGAGGT | 0.984 |
| GTGAGGATGA | 1 |
| TTCAGACCCA | 1.03 |
| GTGGGCAGGC | 0.948 |

| Sequence | switch fluorescence ratio |
| --- | --- |
| ACACAGTTTG | 1.04 |
| TTTGGTCGCG | 0.999 |
| GTGCCCTATG | 0.978 |
| GGTTGATTGC | 1.03 |
| TTTTGCCGAC | 0.942 |
| GGTAGCTAGG | 0.967 |
| CGAGAGCTAT | 1.61 |
| ATAAAAAACG | 1.05 |
| TTAGGGATT | 0.994 |
| ATGAGCCGTG | 1.02 |
| GTTGATAGC | 1.05 |
| GGGAGTGCTG | 1.1 |
| TAGCACAGGC | 1.09 |
| CGTCTCTATG | 0.968 |
| AGCATGATAA | 0.972 |
| GGCGGATCTT | 1 |
| GCAATCGGTG | 1.34 |
| ACGAATAGAG | 1.05 |
| CCAATCGTAG | 1.01 |
| CGAGCAGCCT | 1.1 |
| AAAACTTTCG | 1.09 |
| ATTGTAAACG | 0.974 |

| Sequence | switch fluorescence ratio |
| --- | --- |
| TAATCTTGGA | 0.973 |
| TGTGTTTACA | 1.05 |
| GAGTATAAAA | 1.01 |
| GAATGATGTG | 0.993 |
| GGGAGGTCGA | 1.02 |
| GGCGTGAAGG | 1.03 |
| GACGGATTCA | 0.973 |
| CGGTGTTCAG | 1.05 |
| TGATGTGCAG | 1.03 |
| ATCTCCTTCG | 1.49 |
| CCTATGCACT | 3.5 |
| CTGACTAAGG | 1.08 |
| CGGTGCGCCC | 1.08 |
| GTCGTTAAGC | 1.01 |
| CGCAGTTATA | 1.22 |
| GGCGACAGGG | 0.997 |
| GCATTAATCA | 1.01 |
| CATGGAGAAA | 0.981 |
| GAGGTACGAA | 0.976 |
| TACTCTGGCG | 1.03 |
| ACTCTTACTC | 1.28 |
| CAGATTGCCT | 1.04 |

| Sequence | switch fluorescence ratio |
| --- | --- |
| AGTTGTACCG | 0.969 |
| TTACATGATC | 1.03 |
| ATTGTATACT | 1.03 |
| TGCGAAAAAT | 1.02 |
| AGTCATACGG | 1.03 |
| TTTATCCTGC | 1.04 |
| TTTTGCCAAG | 1.01 |
| ATGGGTGTG | 0.977 |
| ACTTTGTGGG | 0.99 |
| GGAGCGATTT | 1.62 |
| TGCTTTTAGT | 0.993 |
| CGGGGCGGAA | 1.16 |
| TAATTGGTCG | 1.01 |
| ATCACATGTT | 0.974 |
| ATGGAACGTT | 0.984 |
| CGGTCCCGGG | 0.982 |
| TCAGGA | 1.05 |
| CGACGAATCA | 0.935 |
| AGCCTAAATG | 1.04 |
